We go through 24 sequences from the supplement of paper PMC10338343.

± gives the standard deviation. The entries are a selection whose mix differs from that of the whole data set.
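Also: 1 nM active piRISC with 0.1 nM target library at 33 °C single turnover.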

In this test the test system is MIWI (PIWIL1) piRISC loaded with piRNA #1 (30 nt). In words: pre-steady-state target cleavage rate (min^-1); MIWI and MILI are mouse PIWI proteins and EfPiwi is from a freshwater sponge; tags in brackets are library labels; higher = faster piRNA-guided slicing of the target. Particulars: guide: piRNA #1 5'p-UGAGGUAGUAGGUUGUAUAGUAUCCAGAGG; auxiliary factor: 500 nM mouse GTSF1. In outline: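 The pre-steady-state cleavage rate was derived from a burst-and-steady-state fit of Cleave-'n-Seq data. For these assays, 1 nM active affinity-purified piRISC loaded with a single synthetic guide was mixed with […] a transcribed, DNA-blocked target RNA library in HEPES–potassium acetate buffer at 33 °C, with or without 500 nM GTSF1 partner protein, for 0–8 or 0–960 min. Sequencing counts of uncleaved targets were normalised to depth and to weakly complementary targets, and k3 was capped at 0.0001 min^-1 after three trials were pooled.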
CCUCUGGAUACUAUACAACCUACUAGGUCA: the “pre-steady-state target cleavage rate” value turned out to be 0.095 ± 0.02.

As to CCUGUGGAUACUAUACAACCUAGUACCUCA, the “pre-steady-state target cleavage rate” value was determined as 0.186 ± 0.051.

For GGAGUGGAUUCUUUACAACCUACUACCUCA, the “pre-steady-state target cleavage rate” value was found to be 1.13 ± 0.082.

As for CCUCAGGAUACAAUACAACCUACUACCUCA, the “pre-steady-state target cleavage rate” value turned out to be 2.01 ± 0.12.

On to GGAGAGGAUACUAUACAACCUACUACCGCA, for which the “pre-steady-state target cleavage rate” value turned out to be 0.306 ± 0.027.

As for GGUCCGGAUACUAUACAACCUACUACCUCA, the “pre-steady-state target cleavage rate” value was found to be 1.76 ± 0.11.

For the sequence GGAGACCUAACCAUACAACCUACUACCUCA, the “pre-steady-state target cleavage rate” value was determined as 0.468 ± 0.23.

For the sequence GGUGUGGAUACUAUACAACCUUCUACCUCA, the “pre-steady-state target cleavage rate” value worked out at 0.734 ± 0.033.

Regarding CCUGUGGAUACUAUAGAACCUACUACCUCA, the “pre-steady-state target cleavage rate” value is 1.48 ± 0.088.

On to GCUCUGGUAUACUAUACAACCUACUACCUCA, for which the “pre-steady-state target cleavage rate” value was 1.97 ± 0.099.

On to GCUCUGGAGUACUAUACAACCUACUACCUCA, for which the “pre-steady-state target cleavage rate” value was found to be 1.79 ± 0.1.

Consider GGAGACCUAUCUAUACAACCUUCUACCUCA, for which the “pre-steady-state target cleavage rate” value stood at 0.129 ± 0.013.

On to GGAGACCUAUGUAUACAAGCUACUACGUCA, for which the “pre-steady-state target cleavage rate” value came to 0.0294 ± 0.0057.

Consider GGAGACCUUACUAUACAUCCUAGUACCUCA, for which the “pre-steady-state target cleavage rate” value was 0.263 ± 0.027.

For GGAGACCUUACUUUACAAGCUACUACCUCA, the “pre-steady-state target cleavage rate” value was determined as 0.553 ± 0.039.

For the sequence GGUCAGGAUACUAUACAACCUACUAGCUCA, the “pre-steady-state target cleavage rate” value came to 0.255 ± 0.033.

As to CCUCUGCAUACUAUACAACCUACUAGCUCA, the “pre-steady-state target cleavage rate” value stood at 1.23 ± 0.1.

Take GGAGAGGAUUCUAUACAAGCUACUACCUCA: the “pre-steady-state target cleavage rate” value was 0.788 ± 0.033.

GGAGACCUAUGAUAUGUUCCUACUUCCUCA: the “pre-steady-state target cleavage rate” value was below 0.0001.

For GGUCUGGAUACUAUAGAACCUACUACCUGA, the “pre-steady-state target cleavage rate” value worked out at 0.0516 ± 0.014.

On to GGAGACCAAACAAUACAACCUACUACCUCA, for which the “pre-steady-state target cleavage rate” value was determined as 0.377 ± 0.16.

GCUCUGGAUACUAUAGAACCUACUAGCUCA: the “pre-steady-state target cleavage rate” value is 0.0073 ± 0.0034.

On to GGAGACGAUACUAUACAAGCUACUACGUCA, for which the “pre-steady-state target cleavage rate” value was determined as 0.877 ± 0.095.

For the sequence GGAGACCAUACUAAACAACCUUCUACCUCA, the “pre-steady-state target cleavage rate” value amounted to 0.364 ± 0.034.
